Source: the supplement of paper PMC9446081
Among all 39,000 compounds or so, about 220 (0.56%) showed activity. This is one part of the list.

tested on: Escherichia coli K-12 BW25113; test: relative growth (OD600 normalised to plate interquartile mean) (fraction); higher = less growth inhibition, active = 0.2 or less; conditions: 50 µM; LB; incubation time: overnight (16-24 h)
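Also: static incubation at 37 °C against the wild-type strain, values averaged over two biological replicates.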

Compound | relative growth
CC(C)CC#Cc1ccc2c(c1)O[C@@H](CN(C)CC1CCOCC1)[C@H](C)CN([C@H](C)CO)S2(=O)=O | inactive: 0.964
C[C@@H]1CN([C@H](C)CO)C(=O)c2cccc(NS(C)(=O)=O)c2O[C@H]1CN(C)Cc1ccc2c(c1)OCO2 | inactive: 0.998
CN(C)CC(=O)Nc1ccc2c(c1)C(=O)N(C)[C@H]1CC[C@H](CC(=O)Nc3cccc(Cl)c3)O[C@@H]1CO2 | inactive: 1
Cc1ccc(S(=O)(=O)Nc2ccc3c(c2)C(=O)N([C@@H](C)CO)C[C@H](C)[C@@H](CN(C)C(=O)Nc2ccc4c(c2)OCO4)OCCCC[C@@H](C)O3)cc1 | inactive: 1.01
C[C@H]1CCCCO[C@@H](CN(C)Cc2ccccc2)[C@@H](C)CN([C@@H](C)CO)C(=O)c2cc(NC(=O)Nc3ccc4c(c3)OCO4)ccc2O1 | inactive: 0.976
COc1ccc(S(=O)(=O)Nc2ccc3c(c2)C(=O)N([C@@H](C)CO)C[C@@H](C)[C@@H](CN(C)Cc2ccccc2)OCCCC[C@H](C)O3)cc1 | inactive: 1.01
COc1ccc(S(=O)(=O)N(C)C[C@H]2OCCCC[C@H](C)Oc3ccc(NC(=O)Nc4ccccc4)cc3C(=O)N([C@H](C)CO)C[C@@H]2C)cc1 | inactive: 1.04
C[C@@H]1CN([C@H](C)CO)C(=O)CCCn2cc(nn2)CO[C@@H]1CN(C)C(=O)c1cc(-c2ccccc2)on1 | inactive: 0.989
Cc1ccc(S(=O)(=O)Nc2ccc3c(c2)C(=O)N([C@@H](C)CO)C[C@H](C)[C@H](CN(C)Cc2ccc(C(F)(F)F)cc2)OCCCC[C@H](C)O3)cc1 | inactive: 1.05
C[C@@H]1CCCCO[C@H](CN(C)CC2CCCCC2)[C@H](C)CN([C@H](C)CO)C(=O)c2cc(NC(=O)Nc3ccc4c(c3)OCO4)ccc2O1 | inactive: 1.04
COc1ccc(S(=O)(=O)Nc2ccc3c(c2)CC(=O)N([C@H](C)CO)C[C@H](C)[C@H](CN(C)S(=O)(=O)c2cccs2)O3)cc1 | inactive: 1.02
Cc1cc(C(=O)Nc2cccc3c2O[C@H](CN(C)S(=O)(=O)c2ccc(F)cc2)[C@@H](C)CN([C@H](C)CO)C3=O)n(C)n1 | inactive: 0.985
CC(C(=O)O)c1ccc2c(c1)Cc1cccnc1O2 (stereo unspecified) | inactive: 0.302
CN(c1cccc(C(N)=O)c1)S(C)(=O)=O | inactive: 0.994
C[C@H](CO)N1C[C@H](C)[C@@H](CN(C)C(=O)CN(C)C)Oc2ncc(C#CC3(O)CCCC3)cc2C1=O | inactive: 0.982
CS(=O)(=O)N1C[C@H](O)COC[C@H]2O[C@@H](CC(=O)NCc3ccccc3)CC[C@@H]21 | inactive: 0.998
C[C@@H]1CN([C@H](C)CO)C(=O)c2cccc(NC(=O)Nc3ccc(F)cc3)c2O[C@H]1CN(C)Cc1ccc(-c2ccccc2)cc1 | inactive: 0.977
C[C@H]1CCCCO[C@@H](CN(C)C(=O)Nc2ccc3c(c2)OCO3)[C@@H](C)CN([C@@H](C)CO)C(=O)c2cc(NS(=O)(=O)c3cccs3)ccc2O1 | inactive: 0.999
Cc1noc(C)c1NC(=O)Nc1ccc2c(c1)C(=O)N([C@@H](C)CO)C[C@@H](C)[C@H](CN(C)C(=O)Nc1cccc3ccccc13)OCCCC[C@H](C)O2 | inactive: 1.04
O=C1NCCN1c1ncc([N+](=O)[O-])s1 | active: 0.0407
C[C@@H]1CN([C@H](C)CO)C(=O)c2cc(NS(=O)(=O)c3cn(C)cn3)ccc2O[C@H]1CN(C)S(=O)(=O)c1cn(C)cn1 | inactive: 0.893

Compound | relative growth
COc1cc(C(=O)O)ccc1NC(=O)[C@@H]1N[C@@H](CC(C)(C)C)[C@](C#N)(c2ccc(Cl)cc2F)[C@H]1c1cccc(Cl)c1F | inactive: 1.01
CO[C@@]1(CNS(C)(=O)=O)CCSC1 | inactive: 0.965
Cc1c(C)c(C)c(CSc2ccccc2N)c(C)c1C | inactive: 1.01
C[C@H](CO)N1C[C@H](C)[C@H](CN(C)S(=O)(=O)c2ccc(F)cc2)Oc2ccc(NC(=O)c3ccncc3)cc2C1=O | inactive: 0.899
Cc1ccc(S[C@]2(C(=O)NCc3ccccc3)CC(=O)N(C3CCCCC3)[C@@H]2c2ccc(CO)cc2I)cc1 | inactive: 1.02
Cc1ccc(S(=O)(=O)Nc2cccc3c2O[C@@H](CN(C)CC2CC2)[C@@H](C)CN([C@H](C)CO)C3=O)cc1 | inactive: 1.01
C=CCCN(CC#C[C@H]1Oc2ccccc2S(=O)(=O)N2CCC[C@@H]12)S(=O)(=O)c1ccc(C)cc1 | inactive: 0.97
CC(C)(C)OC(=O)C[C@H]1C/C=C/CC[C@H](Cc2ccc(F)cc2)C(=O)O[C@H](c2ccccc2)CNC1=O | inactive: 1.01
Cc1nnc2sc(=S)[nH]n2c1=O | inactive: 0.999
C[C@H]1CN([C@@H](C)CO)C(=O)Cc2cc(NC(=O)Nc3ccc(Cl)c(Cl)c3)ccc2O[C@H]1CN(C)S(=O)(=O)c1ccc(Oc2ccccc2)cc1 | inactive: 1.01
Cn1cccc1[C@@H](CN)N1CCc2ccccc2C1 | inactive: 1.01
C[C@@H]1CCCCO[C@@H](CN(C)C(=O)Nc2ccccc2)[C@H](C)CN([C@@H](C)CO)C(=O)c2cc(NC(=O)Nc3ccc(F)cc3)ccc2O1 | inactive: 1.05
C[C@@H]1CN([C@@H](C)CO)C(=O)c2cccc(NC(=O)c3ccc(-c4nccs4)cc3)c2O[C@H]1CN(C)Cc1ccc(Cl)c(Cl)c1 | inactive: 1.03
COc1ccc(NC(=O)N(C)C[C@@H]2Oc3ccc(NC(=O)Nc4ccc(C(F)(F)F)cc4)cc3C(=O)N([C@H](C)CO)C[C@H]2C)cc1 | inactive: 1
Cc1ccc(S(=O)(=O)N(C)C[C@H]2OCCCC[C@H](C)Oc3ccc(NC(=O)C4CCCCC4)cc3C(=O)N([C@@H](C)CO)C[C@@H]2C)cc1 | inactive: 1.01
C[C@@H]1CCCCO[C@H](CN(C)Cc2ccc3c(c2)OCO3)[C@H](C)CN([C@@H](C)CO)C(=O)c2cc(NC(=O)Cc3ccccc3)ccc2O1 | inactive: 0.983
CC(C)[C@@H](N)c1nccn1C | inactive: 1.01
Cc1ccc(S(=O)(=O)N2C[C@@H](O)COC[C@@H]3O[C@@H](CC(=O)NCc4ccc(Cl)c(Cl)c4)CC[C@H]32)cc1 | inactive: 1
C[C@H](CCC(=O)O)[C@H]1CC[C@H]2[C@@H]3CC=C4C[C@@H](O)CC[C@]4(C)[C@H]3CC[C@]12C [3beta-HYDROXYCHOL-5-ENIC ACID] | inactive: 1.06
C[C@@H]1CN([C@H](C)CO)C(=O)c2cc(NS(=O)(=O)c3cccs3)ccc2O[C@@H]1CN(C)S(=O)(=O)c1cccs1 | inactive: 1
C[C@@H]1CN([C@H](C)CO)C(=O)c2cc(NC(=O)CCN3CCOCC3)ccc2O[C@H]1CN(C)C(=O)Nc1ccccc1 | inactive: 0.989

Compound | relative growth
CN(C)CCCNC(=O)C[C@H]1C=C[C@H](NC(=O)Cc2cccnc2)[C@H](CO)O1 | inactive: 0.936
C[C@@H]1CCCCO[C@@H](CN(C)C(=O)Nc2ccc(F)cc2)[C@@H](C)CN([C@@H](C)CO)C(=O)c2cc(NC(=O)Nc3ccc(C(F)(F)F)cc3)ccc2O1 | inactive: 0.983
Cc1ccc(S(=O)(=O)Nc2ccc3c(c2)C(=O)N([C@H](C)CO)C[C@H](C)[C@@H](CN(C)C(=O)Nc2c(C)noc2C)OCCCC[C@H](C)O3)cc1 | inactive: 0.824
C[C@H](CO)N1C[C@H](C)[C@H](CN(C)S(=O)(=O)c2cccs2)Oc2ccc(NC(=O)CCN3CCOCC3)cc2C1=O | inactive: 1
C[C@H](CO)N1C[C@H](C)[C@@H](CN(C)S(=O)(=O)c2ccc(F)cc2)Oc2ccc(NS(=O)(=O)c3cn(C)cn3)cc2C1=O | inactive: 1
C=CCOC(=O)[C@@H]1[C@@H]2C=C[C@]3(O2)[C@H](C(=O)N(CC=C)Cc2ccccc2)N(c2cccc(Cl)c2CO)C(=O)[C@@H]13 | inactive: 1.02
COCC#Cc1ccc2c(c1)O[C@@H](CN(C)S(=O)(=O)c1cccc(F)c1)[C@@H](C)CN([C@@H](C)CO)S2(=O)=O | inactive: 1.02
CC(C)NC(=O)Nc1ccc2c(c1)C(=O)N([C@H](C)CO)C[C@H](C)[C@@H](CN(C)C(=O)Nc1ccc3c(c1)OCO3)O2 | inactive: 0.997
N=C(N)SCCN1C(=O)c2ccccc2C1=O | inactive: 0.996
COc1ccc(CN(C)C[C@@H]2OCCCC[C@H](C)Oc3ccc(NC(=O)Nc4c(C)noc4C)cc3C(=O)N([C@@H](C)CO)C[C@@H]2C)cc1 | inactive: 1.01
CC(=O)Nc1ccccc1 | inactive: 0.95
C[C@H](CO)N1C[C@H](C)[C@@H](CN(C)S(=O)(=O)c2ccc(Cl)cc2)Oc2c(cccc2N(C)C)C1=O | inactive: 1.01
Cc1noc(C)c1NC(=O)N[C@H]1C=C[C@H](CC(=O)N2CCN(C)CC2)O[C@H]1CO | inactive: 1.02
CNC(=O)c1ccc2c(c1)nnn2C | inactive: 0.978
C[C@H](CO)N1C[C@H](C)[C@H](CN(C)C(=O)C2CCCCC2)OCCCC[C@H](C)Oc2ccc(NC(=O)c3ccccc3)cc2C1=O | inactive: 0.992
CC(C)CCC[C@@H](C)[C@H]1CC[C@H]2[C@@H]3CCC4=C/C(=N/O)CC[C@]4(C)[C@H]3CC[C@]12C | inactive: 0.982
C[C@H](CO)N1C[C@H](C)[C@H](CN(C)Cc2ccccc2)Oc2c(NC(=O)Nc3cccc4ccccc34)cccc2C1=O | inactive: 1
C[C@@H]1CN([C@H](C)CO)S(=O)(=O)c2ccc(C#CCC3CCCC3)cc2O[C@H]1CN(C)C(=O)CN(C)C | inactive: 0.817
CNC(=O)C[C@@H]1CC[C@H]2[C@@H](COC[C@H](O)CN2C(=O)Nc2ccc3c(c2)OCO3)O1 | inactive: 0.967
